From PubChem BioAssay AID1745853 (National Center for Advancing Translational Sciences (NCATS), 2022)
The other results are listed elsewhere or left out. These are further read-outs of the screen, such as a control signal, another cell line or another target. No call is given for them.

Legend:
Test in all cases: Primary Screen for Target Class Profiling of Small Molecule Inhibitors of Methyltransferases
[1] = molecular target: Glycine N-methyltransferase (Homo sapiens) (UniProt Q14749); conditions: purified enzyme, MTase-Glo SAH luminescence; measured here: GNMT inhibition; at 40 µM; stronger effect = lower value
How it was run: (§1)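 Each enzyme was reacted with SAM and its substrate, with compounds tested once at 40 uM; SAH formed was read by MTase-Glo luminescence.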

[2] = molecular target: Guanidinoacetate N-methyltransferase (Homo sapiens) (UniProt Q14353); conditions: purified enzyme, MTase-Glo SAH luminescence; measured here: GAMT inhibition; at 40 µM; stronger effect = lower value
How it was run: as §1

[3] = molecular target: Histamine N-methyltransferase (Homo sapiens) (UniProt P50135); conditions: purified enzyme, MTase-Glo SAH luminescence; measured here: HNMT inhibition; at 40 µM; stronger effect = lower value
How it was run: as §1

[4] = molecular target: Nicotinamide N-methyltransferase (Homo sapiens) (UniProt P40261); conditions: purified enzyme, MTase-Glo SAH luminescence; measured here: NNMT inhibition; at 40 µM; stronger effect = lower value
How it was run: as §1

[5] = molecular target: Phenylethanolamine N-methyltransferase (Homo sapiens) (UniProt P11086); conditions: purified enzyme, MTase-Glo SAH luminescence; measured here: PNMT inhibition; at 40 µM; stronger effect = lower value
How it was run: as §1
On the % scale 0 is the no-effect control and ±100 the full control effect.

Compound	activity change, negative = inhibition [1] [%]	activity change, negative = inhibition [2] [%]	activity change, negative = inhibition [3] [%]	activity change, negative = inhibition [4] [%]	activity change, negative = inhibition [5] [%]
COC(=O)c1cccc2c1NC(c1ccc(Br)cc1)C1CC=CC21 (stereo not drawn)	-12.3	4.01	-10.9	-12.8	-9.66
CC(C)OCCCn1c(=O)c2ccccc2n2c(CCC(=O)NC3CCCCC3)nnc12	-5.93	4.45	4.08	4.29	1.17
COc1cccc(CC(=O)N2CCCCCCN(C)C(=O)[C@H]3CCC[C@H]32)c1	-2.24	-3.67	-1.22	-9.7	8.13
COc1cccc(CNC(=O)Cn2ccc3cc(S(=O)(=O)N4CCCCC4)ccc32)c1OC	1.5	-0.66	-4.27	-8.8	-4.19
O=C(CCc1nnc2n(Cc3ccc(Cl)cc3)c(=O)c3ccccc3n12)NCc1ccccc1	-7.71	3.65	3.29	1.14	-2.41
CCCc1cc2c(N3CCN(C4=NCC(C)(C)S4)CC3)ncnc2s1	-1.83	11	-33.6	-88.6	-1.77
C[C@@H]1CC[C@@]2(OC1)O[C@H]1C[C@H]3[C@@H]4CC=C5C[C@@H](O)CC[C@]5(C)[C@H]4CC[C@]3(C)[C@H]1[C@@H]2C	0.822	-7.78	3.82	-14.4	-0.787
Cc1cccc(-c2cccc(CN3CCC(N[S+](=O)([O-])c4c(C)noc4C)CC3)c2)c1	-1.04	-0.787	-0.006	-3.47	0.88
CC(C)CCNC(=O)C1(C)Cn2c(cc3ccccc32)C(=O)N1c1cccc(Cl)c1 (stereo not drawn)	-3.99	4.74	0.306	-6.09	-4.24
COC(=O)/C=C/C=C/C(=O)OC1C=C2COC(=O)C2(O)C2(C)CCCC(C)(C)C12 (stereo not drawn)	-3.71	-1.84	6.32	-16.8	-6.17
CNCc1ccc(C)c(NC(=O)c2ccc(Nc3nc(-c4ccccc4)c4ccccc4n3)cc2)c1	-17.4	-17.4	-21.6	-48.6	-18.2
CCc1ccc(S(=O)(=O)c2nnn3c2nc(NCCNC(C)=O)c2cc(Cl)ccc23)cc1	-15.9	2.85	0.683	-12.6	-1.75
COC(=O)C1=COC(O[C@@H]2O[C@H](CO)[C@@H](O)[C@H](O)[C@H]2O)[C@H]2[C@@H]1[C@H](OC(=O)CCc1ccc(O)cc1)C[C@]2(C)O (stereo partly drawn)	6.48	2.11	10.1	-7.26	0.718
CCC1(CO)CCCN(CCCOc2ccc(C(N)=O)cc2)C1 (stereo not drawn)	-4.49	-8.76	-24.9	-15.2	-9.68
COC(=O)CC(NC(=O)Nc1cccn2nc(C)nc12)c1ccccc1 (stereo not drawn)	-7.84	0.493	1.54	-9.36	-4.31
CCc1cc2c(cc3n2CC(C)(C(=O)NC2CCCCC2)N(Cc2ccco2)C3=O)s1 (stereo not drawn)	-18.5	4.91	-5.62	-10.9	-7.87
Cc1ccc(CNC(=O)Cn2c(=O)oc3cc(S(=O)(=O)N4CCCCC4C)ccc32)cc1 (stereo not drawn)	15	0	6.91	-3.54	1.33
COc1ccc(S(=O)(=O)N2CCCC(CN3CCC(C)CC3)CC2)cc1 (stereo not drawn)	3.05	2.08	-0.756	2.22	6.57
C=CCn1c(=O)c2ccc(C(=O)NC(C)C)cc2n2c(=O)n(CC(=O)Nc3ccccc3F)nc12	2.91	3.41	3.56	-5.78	0.026

Compound	activity change, negative = inhibition [1] [%]	activity change, negative = inhibition [2] [%]	activity change, negative = inhibition [3] [%]	activity change, negative = inhibition [4] [%]	activity change, negative = inhibition [5] [%]
COc1cc([C@H]2OC[C@@H]3[C@@H](c4ccc(O[C@@H]5O[C@H](CO)[C@@H](O)[C@H](O)[C@H]5O)c(OC)c4)OC[C@]23O)ccc1O	4.75	4.53	10.6	-5.42	7.6
CCCn1c(=O)c2ccc(C(=O)NC(C)C)cc2n2c(SCc3ccccc3F)nnc12	-2.46	1.26	-3.57	-1.95	-2.17
CC(C)C1=CC2=CCC3[C@](C)(CCC[C@@]3(C)C(=O)O)C2CC1O (stereo partly drawn)	-1.86	-7.05	3.36	-16.6	-12.6
COCCCN1C(=O)CSc2c(c(C)nn2-c2ccccc2)C1C(=O)NCc1ccccc1OC (stereo not drawn)	2.21	1	7.58	4.86	7.12
Clc1ccc(C(c2ccccc2Cl)C(Cl)Cl)cc1 (stereo not drawn)	-0.797	9.82	10.4	-10.5	-3.72
CCCn1c(=O)c2ccc(Cl)cc2n2c(=O)n(CC(=O)N3CCN(c4ccccc4F)CC3)nc12	-5.73	0	5.42	-9.93	-4.7
CN[C@@H]1[C@@H](O)[C@@H](O[C@@H]2[C@@H](O)[C@H](O[C@H]3O[C@H]([C@@H](C)NC)CC[C@H]3N)[C@@H](N)C[C@H]2N)OC[C@]1(C)O	–	0.288	–	-10.8	-3.61
COc1cccc(CNC(=O)Cn2ccc3cc(S(=O)(=O)N4CCC(C)CC4)ccc32)c1	2.62	5.17	0.467	-0.298	0.951
Cc1ccc(C)c(N2C(=O)c3cc4sccc4n3CC2(C)C(=O)NC2CCCC(C)C2C)c1 (stereo not drawn)	1.75	0.966	0.239	4.47	2.96
CCc1cccc(NC(=O)Cn2nc3n(C)c(=O)c4ccc(C(=O)NC(C)CC)cc4n3c2=O)c1 (stereo not drawn)	6.07	1.94	7.35	-2.2	5.51
O=[S+]1([O-])N(c2ccccc2)C[C@@H](O)[C@]12CCN(Cc1ccc(OC(F)F)cc1)C2	-1.24	0.562	3.02	-1.79	-2.99
COc1cccc(C(=O)N2CCC3(CCNCC3)CC2)c1C	-5.92	-10.9	-6.09	-13.7	-24.7
Cc1ccc(-c2ncc(C(=O)N3CCC(Nc4ncccn4)CC3)c(=O)[nH]2)cc1	-7.31	0.46	0.563	-0.078	-0.584
CCOC(=O)c1cc2n(n1)CC(C)(C(=O)NCc1ccccc1)N(Cc1cccc(Br)c1)C2=O (stereo not drawn)	5.13	0	10	2.79	4.84
O=C(c1cccc(F)c1)N1CCCC(CN2CCOCC2)CC1 (stereo not drawn)	-6.5	-9.38	-5.91	-8	-2.6
CCCN1C(=O)c2cc3ccc(OC)cc3n2CC1(C)C(=O)NC1CCCCCC1 (stereo not drawn)	7.37	4.43	10.7	10.1	3.33
COc1cc(CNCCc2ccc(Cl)cc2)ccc1OCC(O)CN1CCOCC1 (stereo not drawn)	-5.27	-2.42	-18.4	-7.17	-6.45
COc1cccc(NC(=O)N2Cc3c(sc4c3CCCC4)-n3cccc3C2C)c1 (stereo not drawn)	-0.568	0	1.43	2.21	4.34
